In PubChem BioAssay AID1476 (National Center for Advancing Translational Sciences (NCATS), 2009):
The campaign covered roughly 200,000 compounds. About 4,500 (2.2%) were called active. Calls come from the whole dose curve; as a rule, active = well fitted inhibition curve with a large enough effect; inconclusive = small, poorly fitted or top-dose-only effect, or effect the other way; inactive = flat fitted curve, though single readings scatter. Inconclusive means that the source gave no clear call. A potency beside an inconclusive call is a rough fit, not a confirmed value.

What follows are compounds tested against Cruzipain (Trypanosoma cruzi) (UniProt P25779) (assay: qHTS Assay for Promiscuous and Specific Inhibitors of Cruzain (without detergent)). Details: purified cruzain, Z-FR-AMC fluorescence, no detergent.
UniProt P25779, sequence (P25779 whole entry, looked up): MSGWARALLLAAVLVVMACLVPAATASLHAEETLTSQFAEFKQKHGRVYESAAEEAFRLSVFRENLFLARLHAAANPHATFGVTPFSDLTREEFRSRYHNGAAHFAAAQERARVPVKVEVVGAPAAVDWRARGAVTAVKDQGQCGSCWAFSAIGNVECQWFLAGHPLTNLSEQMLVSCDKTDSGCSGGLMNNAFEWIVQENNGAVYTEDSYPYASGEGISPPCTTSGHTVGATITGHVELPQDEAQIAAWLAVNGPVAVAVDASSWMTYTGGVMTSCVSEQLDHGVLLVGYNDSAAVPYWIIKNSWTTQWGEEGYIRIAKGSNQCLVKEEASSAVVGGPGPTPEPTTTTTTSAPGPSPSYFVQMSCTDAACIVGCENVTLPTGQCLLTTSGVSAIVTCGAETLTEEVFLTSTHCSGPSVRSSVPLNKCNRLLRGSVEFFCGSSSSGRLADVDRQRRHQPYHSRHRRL
Protocol: Cruzain is a cysteine protease from the tropical parasite Trypanosoma cruzi. Dual qHTS experiment was performed against the NCGC compound collection in order to 1) identify novel inhibitors of the enzyme and 2) profile the compound collection for promiscuous inhibitors operating via colloidal aggregation (by performing detergent-free and detergent-containing comparison screens). Cruzain was assayed by the use of fluorogenic coumarin-based substrate Z-FR-AMC: proteolytic cleavage releases AMC, whose fluorescence is measured at 360 nm excitation and 450 nm emission. Purified cruzain was supplied by the labs of Prof. James McKerrow and Brian Shoichet, UC San Francisco.
This assay had 0.00005% Triton X-100 concentration. See also releated assay "qHTS Assay for Promiscuous and Specific Inhibitors of Cruzain (with detergent)" with 0.01% Triton X-100.
See following references for additional details: […]
Three uL of enzyme or buffer were dispensed to 1536-well Greiner black solid bottom plates. […] The plates were immediately transferred to and read 4 times every 30 seconds for 2 min on ViewLux High-throughput CCD imager (Perkin-Elmer) using 360 nm excitation and 450 nm emission fluorescence protocol. The fluorescence intensity difference between the third and the first time points (time lapse of 60 seconds) was used to compute reaction progress.
Note: nearly all actives have a fitted effect of over 40% in size.
Potency is the fitted concentration of half-maximal effect; tags give direction and shape of the fitted curve.

SMILES | Potency
O=C1NN(c2ccc(F)c(Cl)c2)C(=O)/C1=C\c1cccc(OC(=O)c2cccs2)c1 | inconclusive: 25.1 µM [activator, single point]
